Each structure is given as a SMILES string. The full ranking holds about 5,400 compounds; the median of “IFI” is about 2, and the highest 2% start at about 22. The list shows a part of the results.

Consider 60 compounds from ChEMBL document CHEMBL1156829.

The test is described as follows: NOVARTIS: Inhibition Frequency Index (IFI) - the number of HTS assays where a compound showed > 50% inhibition/induction, expressed as a percentage of the number of assays in which the compound was tested. Type of test: functional.
Compound `COc1ccc(C2=C(Nc3ccc(Br)c(C)c3)c3ccccc3C2=O)cc1` showed an IFI of 0%. Take `COc1ccc(OC)c(NC2=C(Cl)C(=O)N(c3ccc(C)c(Cl)c3)C2=O)c1`: the IFI is 0%.

For `O=c1c2sccc2nc(SCc2cccc([N+](=O)[O-])c2)n1C1CC1`, the IFI came out at 0%. The compound `CCC(c1nc2ccccc2c(=O)n1-c1ccccc1OC)N(CCc1ccccc1)C(=O)c1ccc(F)cc1` (stereo not given) registered an IFI of 3.19%. The compound `O=C(NN1CCOCC1)c1ccc(Br)cc1` came in with an IFI of 3.03%. To `NC(=O)CSc1nnc2ccc(-c3ccc4c(c3)OCO4)nn12` belongs 0%; to `O=C(Nc1ccon1)c1cc(-c2cccnc2)nc2ccc(Br)cc12`, 0%. `Cc1nc(N(C)c2ccc(C(C)C)cc2)c2c(C)c(C(=O)Nc3cc(C)on3)sc2n1` displayed an IFI of 1.18%. `Cc1cc(N2CCN(C)CC2)nc2ccc(NC(=O)/C=C/c3ccc4c(c3)OCO4)cc12`: the IFI amounted to 8.33%. To `Cc1ccc(-c2cc(C(F)(F)F)n3nc(C(=O)Nc4cccc(Cl)c4Cl)cc3n2)cc1` belongs 0%. Under `CC(=O)NCCc1ccc(O)cc1` stands 1.48%; under `COCCOC(=O)C1=C(C)NC2=C(C(=O)CC(c3ccc(OC)cc3)C2)C1c1ccc(F)cc1` (stereo not given), 3.45%. Under `c1cc(-c2nc3ccccc3[nH]2)nc(-c2nc3ccccc3[nH]2)c1` stands 2.98%; under `COc1ccc(-c2cncc3ccc(C(=O)NCc4ccncc4)nc23)cc1`, 0%. Compound `CCN(CC)S(=O)(=O)c1cc(C(=O)O)ccc1Cl` displayed an IFI of 7.94%. On to `CC1(CNCc2ccccc2O)C2CC3CC(C2)CC1C3` (stereo not given), for which the IFI was found to be 0%. Under `CCc1ccc(-n2c(C(CC)N(CCc3ccccc3)C(=O)c3cc(OC)cc(OC)c3)nc3ccccc3c2=O)cc1` (stereo not given) stands 2.78%. Under `COc1ccc(-c2c(C(F)(F)F)nn(C)c2NC(=O)Nc2ccc(F)cc2F)cc1` stands 2.46%; under `CCCN(CCC)C(=O)Cn1ccc(=N)c2ccccc21`, 0%.

Regarding `CCCCCCC(=O)Oc1ccccc1-c1nc2ccccn2c1NC(C)(C)CC(C)(C)C`, the IFI is 4.59%.

Turning to `c1ccc(-c2ccnc3c2ccc2c(-c4ccccc4)ccnc23)cc1`, the IFI stood at 13.7%.

`CCc1ccc2[nH]c(=O)c(CN(Cc3ccc(OC)cc3)C(=S)NCCCN(CC)CC)cc2c1` showed an IFI of 8.27%. With `O=C1N=C(N2CCOCC2)S/C1=C/c1cccc2ccccc12`, the IFI came out at 0%. Under `O=C(Nc1ccccc1Cl)C1CCCN1C(=O)OCc1ccccc1` (stereo not given) stands 3.45%; under `CCCOC(=O)C1=C(C)NC2=C(C(=O)CC(c3ccc(OC)c(OC)c3)C2)C1c1ccc(Cl)cc1Cl` (stereo not given), 3.57%; under `CCCCCN(C(=O)c1ccc(C)cc1)C(C)c1nc2ccccc2c(=O)n1-c1ccccc1CC` (stereo not given), 3.7%.

For the compound `Cc1cc(Nc2ccc(I)cc2)n2ncnc2n1`, the IFI was found to be 0%. As for `Ic1nc2ccccc2s1`, the IFI stood at 0%.

For the compound `Cc1ccc2nc(Cl)c3cc(C(=O)NCCN4CCN(C)CC4)sc3c2c1`, the IFI was 2.44%. For `COc1cc2c(cc1OC)-c1cc3ccc4c(c3c[n+]1CC2)OCO4`, the IFI came out at 4.07%. To `COC(=O)c1ccc(N2C(=O)C3C(C2=O)C2(c4ccccc4)C(=O)C3(c3ccccc3)C(c3ccc(OC)cc3)=C2c2ccc(OC)cc2)cc1` (stereo not given) belongs 0%; to `Cc1ccc(N=C2C(=O)Nc3ccc(C)c(Br)c32)c(O)c1`, 0%. For the compound `C[N+](C)(C)c1nc(N2CCOCC2)nc(N(c2ccccc2)c2ccccc2)n1`, the IFI turned out to be 2.41%. Under `CCCCCN(C(=O)c1cccc(C(F)(F)F)c1)C(CC)c1nc2ccccc2c(=O)n1-c1ccccc1OC` (stereo not given) stands 0.926%; under `O=C1C(Nc2ccccc2)=C(N2CCCCC2)C(=O)c2ccccc21`, 10.8%; under `COc1cc(NCCCC(C)N)c2ncccc2c1` (stereo not given), 10.2%. As for `Cc1cccc[n+]1CCCCCCCCCC[n+]1ccccc1C`, the IFI stood at 1.39%. Under `CCOC(=O)C1=C(C)NC2=C(C(=O)CC(c3ccc(OC)c(OC)c3)C2)C1c1cccc(Cl)c1Cl` (stereo not given) stands 3.57%; under `CCOC(=O)c1ccc(NC(=O)c2ccc3nc(NC(=O)c4ccc(C(=O)OC)cc4)sc3c2)cc1`, 1.49%; under `OC(CCN1CCN(C(c2ccccc2)c2ccccc2)CC1)c1ccccc1` (stereo not given), 1.51%. Under `O=C(NC(C(=O)c1ccccc1)N1CCCCC1)c1ccco1` (stereo not given) stands 0%; under `O=C(Nc1ccc2oc(-c3ccc(I)cc3)nc2c1)c1ccc([N+](=O)[O-])o1`, 8.33%; under `COC(=O)c1c(-c2c(Cl)cccc2Cl)noc1NC(=O)NN1CCCCC1`, 1.68%. To `O=C(NCCc1nc(-c2ccncc2)n[nH]1)C12CC3CC(CC(C3)C1)C2` belongs 0%. Turning to `Cn1c2ccccc2c2nnc(NN=Cc3ccccn3)nc21`, the IFI stood at 15.4%. In turn, `CC(=O)Oc1cccc(C=c2sc3ncnn3c2=O)c1` returned an IFI of 0%. Take `O=C(CSc1cn(CCNC(=O)c2ccc(F)cc2)c2ccccc12)Nc1ccccc1F`: the IFI was 1.22%. Turning to `Clc1ccc2c(c1)CN(C1CCCCC1)CO2`, the IFI stood at 1.54%. Consider `Cc1ccc(N2C(=O)CC(NCCCN3CCOCC3)C2=O)cc1` (stereo not given), for which the IFI was determined as 0%. To `COc1ccc(/C=C/c2nc(=O)c3ccccc3o2)cc1` belongs 0%; to `COc1ccc(CCNc2nc(NCCCn3ccnc3)ncc2C(=O)NCC(C)C)cc1OC`, 1.92%. `CN1CCN(c2nc(Nc3ccc(O)cc3)nc3ccccc23)CC1` registered an IFI of 7.14%. As for `CN(C)c1ccc(C(=Cc2cc(-c3ccccc3)cc(-c3ccccc3)[o+]2)c2ccc(N(C)C)cc2)cc1`, the IFI was 12.7%. Turning to `CCN1/C(=C/c2ccc3ccccc3[n+]2CC)C=Cc2ccccc21`, the IFI worked out at 22.7%.

In turn, `COc1ccc(NC(=O)/C=C/c2ccccc2Cl)cc1` yielded an IFI of 0%. Under `O=C1C(=O)c2ncccc2-c2cccnc21` stands 22.1%; under `CCN1CCCC(Nc2ccnc3cc4ccccc4cc23)C1` (stereo not given), 11.8%. In the case of `Cc1cccc(NC(c2ccccc2F)c2ccc3cccnc3c2O)n1` (stereo not given), the IFI was found to be 4.54%.

Regarding `Cc1cccc(OCC(=O)Nc2cccc(NC(=O)COc3cccc(C)c3)n2)c1`, the IFI turned out to be 2.94%.

`O=[N+]([O-])c1ccc(C=NN2CCN(Cc3ccccc3Cl)CC2)cc1` came in with an IFI of 0%.
